Results as given in the RNAGym collection of RNA variant scans (doi:10.1101/gad.245936.114).
Variants at the background level are over-represented here.

B1: tRNA (parent)
chain: CUCUCGGUAGCCAAGUUGGUUUAAGGCGCAAGACUUUAAUUUAUCACUACGAAAUCUUGAGAUCGGGCGUUCGACUCGCCCCCGGGAGAUUUUUUCCUCGAGCAA

Variants of: B1
Test: nonsense suppression (GFP-seq) (ratio to wild type); higher = more function; SUP4oc tRNA, yeast GFP reporter sort-seq
In short: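 Each variant's nonsense suppression (GFPSEQ) is a cell-share-weighted bin median GFP/RFP relative to the unmutated parent tRNA. Yeast with genome-integrated tRNA variants from a ~3% random-mutation library, a galactose-driven GFP ochre reporter and RFP were grown in raffinose/galactose medium with 80 mg/L adenine, then sorted into GFP/RFP bins for Illumina sequencing. Variants needed ≥100 reads and ≥30 cells.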

| Variant | nonsense suppression |
| --- | --- |
| U4A U22C U63G | ≤ 0.026 |
| U4A U22G G66A | ≤ 0.026 |
| U4A U55A U71C G73A | ≤ 0.026 |
| U4A U55C A74G A89C | ≤ 0.026 |
| U4A U55G G66A U76C | ≤ 0.026 |
| U4A U57A | ≤ 0.026 |
| U4A U57A G86C | ≤ 0.026 |
| U4A U58A G59A | ≤ 0.026 |
| U4A U58G | ≤ 0.026 |
| U4A U58G C81G | ≤ 0.026 |
| U4A U63A | 0.155 |
| U4A U63C G78C G85A | ≤ 0.026 |
| U4A U63C U76C G78C G85A | ≤ 0.026 |
| U4A U76A | 0.0437 |
| U4C A13C U76G | ≤ 0.026 |
| U4C A13G C29U | 0.221 |
| U4C A13G C83U | 0.334 |
| U4C A13G U16G G19C A23U U57G | ≤ 0.026 |
| U4C A13U A54C A74C | ≤ 0.026 |
| U4C A13U A54U C81G | ≤ 0.026 |
| U4C A13U U70A G84U | ≤ 0.026 |

| Variant | nonsense suppression |
| --- | --- |
| U4C A14G | ≤ 0.026 |
| U4C A14G C64G | ≤ 0.026 |
| U4C A14U | 0.0343 |
| U4C A14U G26C | ≤ 0.026 |
| U4C A14U G28C C82A | ≤ 0.026 |
| U4C A23C | ≤ 0.026 |
| U4C A23C G65A C83G | ≤ 0.026 |
| U4C A23G C68A A87G | ≤ 0.026 |
| U4C A23U A54G G59U G67C | ≤ 0.026 |
| U4C A23U U76C G85C | ≤ 0.026 |
| U4C A24G | 0.31 |
| U4C A24G G67A U70G A89G | ≤ 0.026 |
| U4C A24U U63A G88C | ≤ 0.026 |
| U4C A30U | 0.0792 |
| U4C A33U C64A | ≤ 0.026 |
| U4C A54U G88U | ≤ 0.026 |
| U4C A62G | ≤ 0.026 |
| U4C A74U | ≤ 0.026 |
| U4C A87C | 0.197 |
| U4C C5G G85C | ≤ 0.026 |
| U4C C11A A33G A74U | ≤ 0.026 |

| Variant | nonsense suppression |
| --- | --- |
| U4C C11A C75U | ≤ 0.026 |
| U4C C11G A74G | ≤ 0.026 |
| U4C C11G G26C G61A C83G | ≤ 0.026 |
| U4C C11U | 0.109 |
| U4C C12G G25U A30U | ≤ 0.026 |
| U4C C12G G32U | ≤ 0.026 |
| U4C C27G A33U A60U U63A | ≤ 0.026 |
| U4C C27G G32A A62G | ≤ 0.026 |
| U4C C29A | 1.11 |
| U4C C34A | 0.0274 |
| U4C C64G U71G G78A | ≤ 0.026 |
| U4C C72U | ≤ 0.026 |
| U4C C72U G73C G78A | ≤ 0.026 |
| U4C C77G C81A | ≤ 0.026 |
| U4C C80A | ≤ 0.026 |
| U4C G6A U57G C81U C83U | ≤ 0.026 |
| U4C G6C U8C A23C A30U A54U U70C G88U | ≤ 0.026 |
| U4C G6U C68A G78C | ≤ 0.026 |
| U4C G6U G28A | 0.427 |
| U4C G10U U16A U20C C72G C75G | ≤ 0.026 |
| U4C G15A A23G G67A C79G | ≤ 0.026 |

| Variant | nonsense suppression |
| --- | --- |
| U4C G15A U63A G66C U71C | ≤ 0.026 |
| U4C G15C C77U | ≤ 0.026 |
| U4C G18C | ≤ 0.026 |
| U4C G19A | ≤ 0.026 |
| U4C G19A A54U | ≤ 0.026 |
| U4C G26C | ≤ 0.026 |
| U4C G26C C29A | ≤ 0.026 |
| U4C G26C G73U | ≤ 0.026 |
| U4C G28U U76A | ≤ 0.026 |
| U4C G59U A60C | ≤ 0.026 |
| U4C G61U | 1.02 |
| U4C G65A | ≤ 0.026 |
| U4C G66C | ≤ 0.026 |
| U4C G69U G86C | ≤ 0.026 |
| U4C G78A | 0.978 |
| U4C G85A | 0.625 |
| U4C U8A | 0.0441 |
| U4C U8A U17G A31C U70C | ≤ 0.026 |
| U4C U8G | ≤ 0.026 |
| U4C U17C G73U | ≤ 0.026 |
